What was measured:
Experiment in all cases: Carterra SPR
[1] = target: T1, SARS-CoV-2 S protein trimer (Kappa B.1.617.1 India variant) [SPN-C52Hr] (SARS-CoV-2)
T1 construct: also called B.1.617.1 Kappa India variant

[2] = target: T2, SARS-CoV-2 S protein trimer (Delta B.1.617.2 India variant) [SPN-C52He] (SARS-CoV-2)
T2 construct: also called B.1.617.2 Delta India variant [SPN-C52he]

[3] = target: T3, SARS-CoV-2 S protein trimer (Beta B.1.351 SA variant) [SPN-C52Hk] (SARS-CoV-2)
T3 construct: also called B.1.351 Beta SA variant

[4] = target: T4, SARS-CoV-2 S protein trimer (Alpha B.1.1.7 UK variant) [SPN-C52H6] (SARS-CoV-2)
T4 construct: also called B.1.1.7 Alpha UK variant

[5] = target: SARS-CoV-2 S protein trimer (P.1 Gamma Brazil variant) [SPN-C52Hg] (SARS-CoV-2)

| Binder | Kd [1] [pM] | koff [1] [s⁻¹] | kon [1] [M⁻¹ s⁻¹] | Kd [2] [pM] | koff [2] [s⁻¹] | kon [2] [M⁻¹ s⁻¹] | kon [3] [M⁻¹ s⁻¹] | kon [4] [M⁻¹ s⁻¹] | kon [5] [M⁻¹ s⁻¹] |
| --- | --- | --- | --- | --- | --- | --- | --- | --- | --- |
| Bispecific Antibody 2 (bispecific antibody, also called Bi-Ab2; Bi-Ab2_ExpiCHO) EVQLVESGGGLVQPGGSLRLSCAASGFTFSPSWMGWFRQAPGKEREFVATINEYGGRNYADSVKGRFTISADNSKNTAYLQMNSLKPEDTAVYYCARVDRDFDYWGQGTLVTVSSGGGGS[gap - human IgG1 Fc with C220S (EU numbers)]GGGSGGGGSASEVQLVESGGGLVQPGGSLRLSCAASGSTFSINAMGWFRQAPGKEREFVAGITSSGGYTNYADSVKGRFTISADNSKNTAYLQMNSLKPEDTAVYYCAADGVPEYSDYASGPVWGQGTLVTVSS | 186 | 6.09e-05 | 328000 | 115 | 3.71e-05 | 322000 | 266000 | 174000 | 297000 |
| Bispecific Antibody 1 (bispecific antibody, also called Bi-Ab1; Bi-Ab1_ExpiCHO) EVQLVESGGGLVQPGGSLRLSCAASGSTFSINAMGWFRQAPGKEREFVAGITSSGGYTNYADSVKGRFTISADNSKNTAYLQMNSLKPEDTAVYYCAADGVPEYSDYASGPVWGQGTLVTVSSGGGGSGGGGSASEVQLVESGGGLVQPGGSLRLSCAASGFTFSPSWMGWFRQAPGKEREFVATINEYGGRNYADSVKGRFTISADNSKNTAYLQMNSLKPEDTAVYYCARVDRDFDYWGQGTLVTVSSGGGGS[gap - human IgG1 Fc with C220S (EU numbers)] |  |  | 239000 |  |  | 195000 | 165000 | 145000 | 200000 |
